Laboratory results reported in PubChem BioAssay AID2147 (National Center for Advancing Translational Sciences (NCATS), 2009).
Where “and” joins values, the source holds several entries; their conditions need not be identical. Identical values can stand only once. About 3,600 (1.6%) of roughly 230,000 compounds were called active. The inconclusive results got no clear call from the source; some entries with a clear call stand among them for comparison. Calls follow the shape of the dose curve; as a rule, active = well fitted inhibition curve with a large enough effect (not every such curve was filed as active); inconclusive = small, poorly fitted or top-dose-only effect, or another doubt; inactive = no such curve, though single readings can be large or run the other way. Potencies beside an inconclusive call are fits to weak or partial responses and may not hold up.
Also: nearly all actives have a fitted effect of over 50% in size.
Potency is read from the fitted curve at half-maximal effect; tags tell the direction and shape of the fitted curve.

Each molecule was assayed against Lysine-specific demethylase 4E (Homo sapiens) (UniProt B2RXH2) (assay: qHTS Assay for Inhibitors of Human Jumonji Domain Containing 2E (JMJD2E)). Conditions: JMJD2E catalytic domain, FDH-coupled NADH fluorescence (FDH is formaldehyde dehydrogenase); series mostly up to 57.1 µM.
Chain of UniProt B2RXH2 (B2RXH2 whole entry, looked up, the tested form may be a part): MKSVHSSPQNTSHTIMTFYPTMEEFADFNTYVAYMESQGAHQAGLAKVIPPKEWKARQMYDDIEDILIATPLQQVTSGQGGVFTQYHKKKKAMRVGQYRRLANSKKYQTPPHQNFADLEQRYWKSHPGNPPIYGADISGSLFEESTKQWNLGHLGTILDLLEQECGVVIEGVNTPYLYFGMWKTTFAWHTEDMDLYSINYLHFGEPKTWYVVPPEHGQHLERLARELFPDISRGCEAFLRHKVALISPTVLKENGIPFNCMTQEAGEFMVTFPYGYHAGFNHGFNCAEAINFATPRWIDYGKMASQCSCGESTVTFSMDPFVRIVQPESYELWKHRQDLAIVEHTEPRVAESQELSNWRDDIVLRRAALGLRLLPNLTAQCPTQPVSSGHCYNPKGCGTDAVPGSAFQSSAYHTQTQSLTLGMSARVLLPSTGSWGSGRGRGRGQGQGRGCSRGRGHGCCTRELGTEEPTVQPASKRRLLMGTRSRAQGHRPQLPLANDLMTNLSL
For `NC(=O)C1CCN(C(=O)c2ccc(Oc3cc(Cl)cc(Cl)c3)o2)CC1`, the Potency was inconclusive: 4.47 µM [inhibitor, full curve, poor fit].
For `CCOc1ccc2[nH]c(=O)c(CN(Cc3ccco3)Cc3nnnn3Cc3ccccc3)cc2c1`, the Potency was inconclusive: 28.2 µM [inhibitor, partial curve].
For `CC(=O)N1N=C(c2c(-c3ccccc3)c3cc(C)ccc3[nH]c2=O)CC1c1ccco1` (stereo not given), the Potency was inconclusive: 25.1 µM [inhibitor, partial curve].
With `Cn1nc(-c2ccccc2)c2ncc(C(F)(F)F)cc21` the Potency was inconclusive: 14.1 µM [inhibitor, partial curve].
With `COc1ccc(CCNC(=O)C(=O)NCc2ccc(C(C)C)cc2)cc1OC` the Potency was “inactive”.
In the case of `CCN(CC)c1nc(C#N)cc(-c2ccc(OC)cc2)n1`, the Potency is reported as inconclusive: 31.6 µM [inhibitor, partial curve].
For `COc1ccc2cc(CN(CCCN3CCOCC3)Cc3nnnn3C3CCCC3)c(=O)[nH]c2c1`, the Potency was inconclusive: 31.6 µM [inhibitor, single point].
For `Cc1ccc(CNC(=O)C2CC3Cn4c(nc5cc6ccccc6cc54)C3N2C)o1` (stereo not given), the Potency was inconclusive: 39.8 µM [inhibitor, single point].
With `C#CCSc1nnc(-c2sc(-c3ccccc3)nc2C)n1C` the Potency was inconclusive: 35.5 µM [inhibitor, partial curve].
With `CN1C(=O)/C(=C/c2ccccc2Cl)Sc2ccc(C(=O)NCc3cccnc3)cc21` the Potency was inconclusive: 39.8 µM [inhibitor, single point].
With `C=CCn1c(SCC(=O)Nc2cc3oc4ccccc4c3cc2OC)nnc1-c1cnccn1` the Potency was inconclusive: 39.8 µM [inhibitor, single point].
For `CCOc1ccccc1NC(=O)CSc1nc2nc(-c3cccs3)cc(C(F)(F)F)c2c(=O)[nH]1`, the Potency was inconclusive: 28.2 µM [inhibitor, partial curve].
In the case of `CC(C)c1ccccc1NC(=O)CNCCc1ccc(C(F)(F)F)cc1`, the Potency is reported as active: 3.16 µM.
With `CC(=O)N1CC(=O)N=C1SCC(=O)Nc1nc(-c2ccccc2)c(-c2ccccc2)s1` the Potency was inconclusive: 31.6 µM [inhibitor, partial curve].
With `O=c1c2ccccc2ncn1CCCOc1ccccc1[N+](=O)[O-]` the Potency was “inactive”.
With `CNCc1cc2ccc(C)cc2[nH]c1=O` the Potency was inconclusive: 39.8 µM [inhibitor, single point].
`O=C(Nc1ccc2c(c1)C(=O)NC2=O)c1ccc(S(=O)(=O)N2CCCC2)cc1` was tested, and the Potency was inconclusive: 35.5 µM [inhibitor, partial curve].
For `CC1CC(C)CN(CC(=O)N2c3ccccc3CCc3ccccc32)C1` (stereo not given), the Potency was inconclusive: 39.8 µM [inhibitor, single point].
With `COc1ccc(C(=O)/C=C/c2cn(CN3CCN(C)CC3)c3ccccc23)cc1` the Potency was inconclusive: 39.8 µM [inhibitor, single point].
With `O=C(CC1CCCC1)NCCc1cn2ccccc2n1` the Potency was inconclusive: 31.6 µM [inhibitor, partial curve].
In the case of `O=C(O)c1cccc(-c2ccc(/C=N/Nc3nn[nH]n3)o2)c1`, the Potency is reported as inconclusive: 22.4 µM [inhibitor, partial curve, poor fit].
For `Cc1csc2c(N3CCN(C(=O)c4ccc(C(C)(C)C)cc4)CC3)ncnc12`, the Potency was “inactive”.
With `Cc1ccccc1NC(=O)Oc1cccc(OC(=O)c2ccccc2)c1` the Potency was “inactive”.
With `O=C(CCC1CCCN(Cc2ccc3c(c2)OCCO3)C1)NCc1ccc(F)c(F)c1` (stereo not given) the Potency was inconclusive: 35.5 µM [inhibitor, single point].
With `CCOC(=O)c1cc(C)nc(SC)c1C#N` the Potency was inconclusive: 39.8 µM [inhibitor, single point].
In the case of `CCN1CCN(CC(O)COc2ccc3c(C)cc(=O)oc3c2)CC1` (stereo not given), the Potency is reported as inconclusive: 31.6 µM [inhibitor, partial curve].
With `O=C(Nc1cnc2ccccn2c1=O)c1ccc(Cl)cc1Cl` the Potency was inconclusive: 35.5 µM [inhibitor, single point].
For `Cc1onc(-c2c(Cl)cccc2Cl)c1C(N)=S`, the Potency was “inactive”.
`COC1=C(C(=O)c2ccccc2)C(=O)C2(CC=C(C)C)C[C@H](C(=O)OCC(F)(F)F)C(C)(C)[C@@]1(CC=C(C)C)C2=O` (tested in a mixture with another compound) was tested, and the Potency was “inactive”.
With `CSc1nnc(-c2cccn(Cc3cccc(Cl)c3)c2=O)o1` the Potency was inconclusive: 28.2 µM [inhibitor, partial curve].
`Nc1ccc(-c2n[nH]c(=O)c3ccccc23)cc1N` was tested, and the Potency was inconclusive: 10 µM [inhibitor, partial curve].
With `O=C1c2ccccc2C(=O)N1CCn1nc(Cl)nc1Cl` the Potency was inconclusive: 25.1 µM [inhibitor, single point].
With `O=C(Nc1nnc(-c2ccco2)o1)c1ccc([N+](=O)[O-])s1` the Potency was inconclusive: 39.8 µM [inhibitor, single point].
In the case of `CCOC(=O)CSc1nc(N)c(C(=O)Nc2ccc(N(C)C)cc2)s1`, the Potency is reported as “inactive”.
With `COc1cc(/C=N/NC(=O)CCc2n[nH]c(=O)[nH]c2=O)cc(OC)c1OC` the Potency was inconclusive: 7.94 µM [inhibitor, single point].
`C=CCOc1ccc2nnc(C)n2n1` was tested, and the Potency was inconclusive: 28.2 µM [inhibitor, single point].
`CN(C(=O)COC(=O)/C=C/c1ccc2ccccc2n1)C1CCS(=O)(=O)C1` (stereo not given) was tested, and the Potency was inconclusive: 22.4 µM [inhibitor, partial curve].
With `COc1ccc2c(c1)OCC(Cc1ccc(O)c(OC)c1)C2=O` (stereo not given) the Potency was “inactive”.
`COc1cc(SC)ccc1C(=O)Nc1cc(C)ccn1` was tested, and the Potency was inconclusive: 39.8 µM [inhibitor, single point].
`CN(C)N=Nc1ccc2nc[nH]c2c1` was tested, and the Potency was inconclusive: 31.6 µM [inhibitor, single point].
In the case of `C[n+]1cc2c3c(ccc2c2ccc4cc5c(cc4c21)OCO5)OCO3`, the Potency is reported as inconclusive: 7.08 µM [inhibitor, single point] and inconclusive: 20 µM [inhibitor, partial curve] and inconclusive: 25.1 µM [inhibitor, partial curve].
For `COc1cc(CN2CCN(Cc3ccc([N+](=O)[O-])cc3)CC2)c([N+](=O)[O-])cc1OC`, the Potency was inconclusive: 15.8 µM [inhibitor, partial curve].
For `Cc1ccc(Cn2ccc(NC(=O)CCSc3nc(-c4ccco4)cc(C(F)(F)F)n3)n2)cc1`, the Potency was inconclusive: 39.8 µM [inhibitor, single point].
In the case of `Cc1ccc(N2NC3(CCN(C(N)=O)CC3)NC2=O)cc1`, the Potency is reported as “inactive”.
With `O=C(O)C1CCCCC1C(=O)Nc1cccc2ccccc12` (stereo not given) the Potency was inconclusive: 35.5 µM [inhibitor, partial curve].
In the case of `CCC/C(C)=C/c1ccc(CC)cn1`, the Potency is reported as inconclusive: 35.5 µM [inhibitor, partial curve, poor fit].
With `CC1CCN(C(=O)CSc2nc(N)c3c4c(sc3n2)CN(C)CC4)CC1` the Potency was inconclusive: 28.2 µM [inhibitor, partial curve].
With `O=C(Nc1ccccc1C(=O)NC(Cc1ccccc1)C(=O)NC1CCCCCC1)c1ccccc1` (stereo not given) the Potency was inconclusive: 28.2 µM [inhibitor, partial curve].
In the case of `CCOCc1nnc(NC(=O)c2ccco2)s1`, the Potency is reported as inconclusive: 31.6 µM [inhibitor, single point].
For `O=S(=O)(c1ccccc1)c1cnc(-c2ccccc2)nc1N1CCCC1`, the Potency was “inactive”.
For `Cc1ccc(S(=O)(=O)C(C#N)c2nc3ccccc3nc2N2CCCC2)cc1C` (stereo not given), the Potency was inconclusive: 28.2 µM [inhibitor, partial curve].
With `COc1ccc(C2C(C#N)=C(N)Oc3c2oc(CO)cc3=O)cc1` (stereo not given) the Potency was inconclusive: 12.6 µM [inhibitor, partial curve].
In the case of `COc1cc(C(=O)Nc2nc(-c3ccc(C)cc3)cs2)ccc1OCC(=O)N1CCOCC1`, the Potency is reported as inconclusive: 35.5 µM [inhibitor, single point].
`c1ccc2c(c1)ccc1nnc(SCc3ccc4c(c3)OCCO4)n12` was tested, and the Potency was inconclusive: 35.5 µM [inhibitor, single point].
In the case of `COc1ccc(S(=O)(=O)NC(C)C(=O)Nc2cccc(C(C)=O)c2)cc1` (stereo not given), the Potency is reported as “inactive”.
With `Cc1ccc(OCCCC(=O)Nc2ccc(S(=O)(=O)Nc3ccccn3)cc2)cc1` the Potency was inconclusive: 39.8 µM [inhibitor, single point].
`Fc1ccc(CN2CCCCCCC2)c(F)c1` was tested, and the Potency was inconclusive: 39.8 µM [inhibitor, single point].
In the case of `O=S(=O)(c1cc(-c2nc3ccccc3s2)ccc1Cl)N1CCOCC1`, the Potency is reported as inconclusive: 35.5 µM [inhibitor, single point].
In the case of `CCCCC(=O)Nc1sc2c(c1C(=O)OCC)CCC(C=O)=C2Cl`, the Potency is reported as “inactive”.
With `COc1ccccc1NC(=O)c1cc2ccccc2o/c1=N\O` the Potency was “inactive”.
With `Cc1c(N=Nc2ccc(O)cc2)c(=O)n(-c2ccccc2)n1C` the Potency was “inactive”.
For `C/C(=N/Nc1nc(-c2ccccc2)cc(-c2ccc(F)cc2)n1)c1cccc(N)c1`, the Potency was inconclusive: 6.31 µM [inhibitor, single point].
In the case of `CC(=O)Oc1ccc2c(C)cc(=O)oc2c1C(=O)c1ccccc1`, the Potency is reported as inconclusive: 28.2 µM [inhibitor, single point].
For `COc1ccc(-c2nn3c(-c4ccccc4)nnc3s2)cc1`, the Potency was inconclusive: 39.8 µM [inhibitor, single point].
With `CCO/C=C1/C(=O)N(c2ccccc2OC)C(=O)c2ccccc21` the Potency was inconclusive: 11.2 µM [inhibitor, partial curve].
